Results from the supplement of paper PMC3334620.
Whole data set: some 33,000 sequences, median “E-score (-0.5 to 0.5)” near -0.04, cut for the highest 2% near 0.36. The list shows a part of the results.

The sequences below were run against T1, Hmlalpha2 (UniProt P0CY09) (assay: PBM E-score (8-mer binding enrichment) (E-score (-0.5 to 0.5)); higher = stronger / more preferred TF binding; most listed sequences are background and not binding sites). Conditions: protein concentration: 200 nM; construct: GST-full length.
T1 sequence: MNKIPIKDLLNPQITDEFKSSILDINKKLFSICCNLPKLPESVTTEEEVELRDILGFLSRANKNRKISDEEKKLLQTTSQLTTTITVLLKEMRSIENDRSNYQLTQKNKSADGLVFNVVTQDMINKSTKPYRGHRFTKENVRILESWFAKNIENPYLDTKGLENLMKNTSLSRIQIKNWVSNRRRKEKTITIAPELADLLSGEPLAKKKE
Outline: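 PURExpress in vitro transcription/translation supplied GST-tagged yeast transcription factors, either full-length or DNA-binding domain. Applied at about 100-200 nM to universal all-10-mer Agilent arrays double-stranded by primer extension, the bound protein was detected with fluorescent anti-GST. E-scores, modified Wilcoxon-Mann-Whitney statistics, were given by the Universal PBM Analysis Suite to ungapped eight-base words pooled with their reverse complements after masliner normalisation.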

Sequence | PBM E-score
ATCCCGCC | -0.294
ACCACAGG | -0.208
AGATAGAT | -0.0694
GGCTATAA | 0.0869
ATCCTTAG | -0.0601
ATCTCACG | -0.123
ACACGGCG | 0.354
CGGACCAG | -0.139
ACCCGGAT | -0.307
CAAAGCGC | -0.115
ATGAATGG | -0.133
ACGCGTAA | 0.394
CGCAATTC | -0.0219
AGGCTCAA | -0.213
CTATCTAC | 0.234
GCCTGACA | -0.134
TGGAGAAA | -0.169
TACCAACA | 0.252
TCTGTGCA | 0.0841
AATCCCGC | -0.0997
CCAATCTA | -0.0689
AGTAAGTC | -0.0383
CGTATACC | 0.0081
TAGAGGGA | -0.124
CTGTAAAC | 0.31

Sequence | PBM E-score
ACCTCCCT | -0.254
CTTCCCTC | -0.232
ACGCCACA | 0.0371
AAGCAGGT | 0.0138
CGGCATCC | -0.0466
ACCGGAGC | -0.27
CGAATACG | 0.259
CAACCTCG | 0.00622
CGCCAGTA | -0.18
AAGGTCCG | -0.108
GATCGTAC | -0.24
CAGTTTCC | -0.159
GATTCGCC | -0.176
TGGCCAAA | -0.0459
ACCACCTC | -0.164
GGAGGGTA | -0.194
CCCTACAA | 0.138
AGTCGTCA | -0.128
AAAACGCG | 0.286
GGCAAAAA | -0.0268
ACATCTCT | 0.2
AACATTTG | 0.0358
CTAGCTTC | -0.192
ACGAGTAC | 0.316
CCCACATC | -0.136

Sequence | PBM E-score
CAACCGTG | 0.0669
AGAGGAGG | -0.34
CGGCGGGA | -0.341
AAGGAATA | 0.0596
CACGCCCA | 0.105
ATACGCCA | -0.109
AATTTTGG | -0.0175
AAATAACC | 0.00326
TCGTATAA | 0.173
CCAAAGAG | -0.108
GAGGTGAA | -0.0616
CGTCGAAA | 0.177
GCTTCAAC | 0.0375
CCCTCCGG | -0.199
GGCCGAAC | -0.267
GCATGTCA | 0.36
GAGCCGCC | -0.273
CTCGTCAA | -0.00047
CTGTCCCA | -0.136
ACCGAGAC | -0.0321
AGTTATAC | 0.125
ACTAAGAC | 0.0422
GTTCGCGA | 0.113
GAGAGCAA | -0.14
GAATCGTA | 0.00348

Sequence | PBM E-score
AGCTTTAA | 0.106
GCTAAACC | -0.15
AGATTACA | 0.411
CCTCAGCC | -0.247
GGTCAACC | -0.17
CTTCGATA | 0.0352
GAACTTGC | 0.139
GCCGACAC | -0.068
GAGGATTA | 0.0642
ACCCGGAG | -0.0101
GCAGCACA | -0.0784
GGCAGTAA | -0.156
TGACCGAA | -0.0905
ATGGGTAG | -0.086
CATAAGAC | 0.0162
AAACCAAA | 0.167
ACTGTAAA | 0.222
AATGCTGT | 0.105
CACGCTTA | 0.33
AGGCTAAT | -0.094
CATGTACC | 0.287
GCCTGCCA | -0.0217
CGGGGGTA | -0.243
AGTGTGCC | -0.266
CCCGAAAA | -0.0882

Sequence | PBM E-score
AGCCAGCC | -0.196
GTCAACAA | 0.197
AAATAGTA | 0.0991
ACTGTCTG | -0.201
CCAAAACC | -0.0752
CAGGTGAA | 0.0124
CAGATCCA | -0.0975
CCAGCGAA | -0.228
GGTCACCA | -0.357
CCGTACTC | -0.122
CTATCGAG | -0.185
ACCAACAT | 0.338
CTGTGTAC | 0.35
AGTTATCG | 0.0173
CGTGGGGC | -0.349
AAGCTAAT | 0.0678
GCCGCCTA | -0.278
CGTTACGA | 0.182
GGTTCTGA | -0.00782
GCCGTGAC | -0.00226
GCATGCGA | 0.0698
TGATAAAA | 0.142
GATTTCAA | 0.00788
AGCCACCT | -0.2
GGCTACCA | -0.143

Sequence | PBM E-score
ATAGGACG | -0.138
ATGATTAG | 0.121
TAAAAGTA | 0.191
AATCAAGA | -0.0294
ATGGCCCA | -0.0587
CCCCTCCC | -0.386
CAGGGCGA | -0.137
GGGACGAA | 0.0435
ATCTTGAG | -0.0606
CTTCCCGA | -0.107
CGTGACAA | 0.118
GGAGATAC | -0.15
AACGCATT | 0.313
ACTGACCG | -0.299
CATCTTGA | 0.0563
GGACATTA | 0.0946
GGATGGTA | 0.148
ACGTAACC | 0.22
CCCGGTGA | -0.242
CAATGATG | -0.0269
AGTCATCA | -0.209
ATCGACTC | -0.0583
CGTCGCAG | 0.00681
AGCCCAAC | -0.144
TAGAGCGA | -0.0117

Sequence | PBM E-score
TACGCCTA | 0.026
AGAGTTTG | 0.0518
GGGTGTCA | -0.00381
AATAATGC | 0.158
CGGCAACA | 0.111
CCCCGACC | -0.197
AAACCTGC | -0.0545
CGTCACCA | -0.158
TACGAAAA | 0.246
ACTAAAAC | 0.176
AGCTGTCC | -0.273
ACGTTTCG | 0.0744
AAACTAAG | 0.241
ACAGATAT | 0.0588
CATCAAAA | -0.0667
GAATAGGA | -0.169
ATCATCAT | 0.0376
GTTCGCCA | -0.106
GCCCGCAA | -0.131
AAAGGACT | -0.184
ACTCCCGC | -0.166
ACACGCCA | 0.311
ATGTAAAC | 0.483
CGGAGCAA | -0.23
CGGATCTA | -0.0271

Sequence | PBM E-score
CTCTTACA | 0.26
ATTGGCGC | -0.0423
TCATTTCA | 0.0433
CAAATGTC | -0.0372
CTGAGAAC | 0.0249
AAAGGGCC | -0.14
CTGGGAAG | -0.205
CACTCGAC | 0.0639
GGGGTATA | -0.293
GGACAAAA | 0.0371
CGGCATTC | -0.148
ACATGGAC | 0.35
AGCCCACA | -0.139
ATGCACCC | -0.141
CTTCTGAA | -0.214
ATAGGTAG | 0.0181
AAGTTAAA | 0.265
ACATGGCG | 0.324
CCGCGACG | -0.179
TAATCTCA | 0.0124
GCTTGCAA | 0.172
ACGGGCTA | -0.103
ACGATAAG | -0.0954
AATTCTAC | 0.229
AAAAAGAG | -0.0989

Sequence | PBM E-score
ACTTAAGC | 0.044
CGGGACGA | -0.214
GGAATGGA | -0.181
CCAGGGCC | -0.245
AAGTCCAG | -0.154
GCGAATAA | 0.0894
AGACCGAG | 0.0221
AGAGAATG | -0.0972
AATAAAGT | 0.0726
TCTATCAA | -0.0106
CCCTGCTA | -0.193
GCTATGCC | -0.12
ACTACCAG | -0.0734
AGTCATGG | -0.103
CGTGTGGC | -0.017
CTCACACC | -0.254
CATTGGTA | 0.0384
ATGTCCTC | 0.0149
GCTCTTGA | -0.211
